Laboratory results published in PubChem BioAssay AID493208 (National Center for Advancing Translational Sciences (NCATS), 2011).
The campaign covered roughly 44,000 compounds. About 340 (0.77%) were called active. Another 5% or so got no clear call; they are omitted. Calls follow the shape of the dose curve; as a rule, active = well fitted inhibition curve with a large enough effect; inconclusive = small, poorly fitted or top-dose-only effect; inactive = flat fitted curve, though single readings scatter. This is one part of the list.

Assay: Acumen qHTS Assay for Inhibitors of the mTORC1 Signaling Pathway in MEF (Tsc2-/-, p53-/-) Cells: Sytravon; also: nearly all actives have a fitted effect of over 50% in size;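 as to activity change, negative = inhibition: plate controls were DMSO for no effect and rapamycin for full effect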
Conditions: phospho-rpS6 immunofluorescence/PI, 24 h; series mostly up to 38.3 µM; activity change, negative = inhibition: at the top concentration
Method in brief: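 Cell-based qHTS: Tsc2-/- p53-/- MEF, 24 h cpd, 37 °C; fix/perm, anti-phospho-S6 Alexa-488 + PI; Acumen 488 nm scan; pS6/PI ratio, % positive cells; rapamycin 7.5 nM = inhibition ref; PI count = viability.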
Potency is read from the fitted curve at half-maximal effect.

SMILES | activity change, negative = inhibition | Potency
Cc1ccc(C)c(NC(=O)Cn2c(=O)n(-c3ccccc3C)c(=O)c3c2c2cc(C)ccc2n3C)c1 | inactive: -6.43% | 
Cc1cccc(C(=O)Nc2cccc(OCc3cc(=O)n4cc(C)sc4n3)c2)c1 | inactive: 5.33% | 
COc1ccccc1-c1nc2c(c(SCC(=O)Nc3ccccc3F)n1)Cc1c(CO)cnc(C)c1O2 | inactive: 3.56% | 
COc1ccccc1C(=O)Nc1c(C(=O)N2CCN(c3ccc(F)cc3)CC2)oc2ccccc12 | inactive: -6.04% | 
COc1ccc(-c2cc(-c3ccccc3)c(C#N)c(SCC(O)CS(=O)(=O)Cc3ccccc3)n2)cc1 (stereo not given) | inactive: -3.36% | 
CCN1CCN(CCCNC(=O)Cn2c(-c3cccs3)cc3ccccc32)CC1 | inactive: -9.57% | 
Cc1ccc2c(=O)cc(C(=O)N(Cc3ccccc3Cl)C3CCS(=O)(=O)C3)oc2c1 (stereo not given) | inactive: 3.33% | 
CC(O)CNC(=O)C(=O)Nc1c2c(nn1-c1ccc(Cl)cc1)CSC2 (stereo not given) | inactive: -0.307% | 
CCOc1ccc(CCNC(=O)CS(=O)(=O)Cc2nc(-c3cccc(Cl)c3)oc2C)cc1 | inactive: 0.133% | 
COc1ccc(NC(=O)C2CCCN(C(=O)c3cnn(-c4ccccc4)c3-n3cccc3)C2)cc1 (stereo not given) | inactive: 0.486% | 
O=C(Nc1ccc(F)cc1)c1ccc(Cn2nc(N3CCN(c4ccccc4)CC3)ccc2=O)o1 | inactive: -21.9% | 
COC(=O)c1ccc(NC(=O)CCc2c(C)nn(-c3ccc(N4CCOCC4)nn3)c2C)cc1 | inactive: 1.52% | 
COc1ccc(CCNc2nc(-c3ccc(Cl)cc3)cc(C(F)(F)F)n2)cc1OC | inactive: -20.4% | 
CCOC(=O)c1c(C)[nH]c(C)c1S(=O)(=O)N1CCC(C(=O)N2CCN(c3cccc(C)c3C)CC2)CC1 | inactive: -16.1% | 
COc1ccccc1-c1nc2c(c(SCc3ccc(F)cc3Cl)n1)Cc1c(CO)cnc(C)c1O2 | inactive: 3.5% | 
COc1cccc(-c2cc(C(=O)N3CCN(c4ccccc4OC)CC3)no2)c1 | inactive: -4.62% | 
COc1ccc(Cl)cc1NC(=O)Cc1coc2c(C)c(C)ccc12 | inactive: -19% | 
CCc1ccc(NC(=O)c2sc3nc4c(cc3c2N)CN(CC)CC4)cc1 | inactive: -3.55% | 
CCc1cccc(NC(=O)Cn2c(=O)c(C(F)(F)F)nc3ccccc32)c1 | inactive: -12.4% | 
Cc1coc2cc3oc(=O)c(CC(=O)N4CCCCC4)c(C)c3cc12 | inactive: 3.38% | 

SMILES | activity change, negative = inhibition | Potency
Cc1cccc(CSc2nc3cc(C(=O)NC4CCCC4)ccc3c(=O)n2Cc2ccccc2)c1 | inactive: -8.52% | 
CCCN(CCC)CC(O)Cn1cc(/C=C/C(=O)c2ccc(OC)cc2)c2ccccc21 (stereo not given) |  | active: 14.7 µM
Cc1cc(C)c2c(=O)cc(C(=O)Nc3nc4ccc(F)cc4s3)oc2c1 | inactive: 1.39% | 
CCC(CC)C(=O)Nc1c(C(=O)N2CCN(c3ccccc3)CC2)oc2ccccc12 | inactive: -7.62% | 
CCCCNC(=O)c1cccc(-n2cnc3cccnc32)c1C | inactive: -7.42% | 
CC1CCCCN1C(=O)c1ccc2c(c1)N(Cc1cccc(Cl)c1)C(=O)c1ccccc1S2=O (stereo not given) | inactive: 2.27% | 
Cc1cc(N(C)Cc2ccccc2)n2nc(-c3ccc(C(C)(C)C)cc3)nc2n1 | inactive: 3.11% | 
CC1CCN(c2nc3c(-c4cccc(Br)c4)nnn3c3ccccc23)CC1 | inactive: 1.39% | 
COc1ccc(OCCn2nnc3sc4c(c3c2=O)CCC(C(C)(C)C)C4)cc1 (stereo not given) | inactive: 4.63% | 
CCOc1ccc(-c2c(C)nn3c(C)c(C(=O)NCc4ccc(Cl)cc4)cnc23)cc1OCC | inactive: -9.88% | 
CCc1ccc(-n2nc3cc(C)c(NC(=O)c4ccccc4C)cc3n2)cc1 | inactive: 1.84% | 
CCC(NC(=O)Nc1cc(Cl)ccc1OC)c1c(-n2cccc2)sc2c1CCN(C)C2 (stereo not given) | inactive: -3.72% | 
COc1ccc(CNC(=O)CCc2c(C)nn(-c3ccc(N4CCCCC4)nn3)c2C)cc1 | inactive: 5.24% | 
CCCCCn1c(=O)[nH]c2cc(C(=O)NCCN(C)CCCC)ccc2c1=O | inactive: -17.4% | 
N=c1n(CCO)c2ccccc2n1Cc1ccccc1F | inactive: -14.7% | 
O=C(CSc1c2c(nc3ccc(Cl)cc13)CCCC2)NCc1ccccc1Cl | inactive: -2.03% | 
COc1ccc(CCNC(=O)c2cc(=O)c3cc(C)cc(C)c3o2)cc1OC | inactive: -0.454% | 
O=C(OCc1ccco1)c1ccc2c(c1)N(Cc1cccc(F)c1)C(=O)c1ccccc1S2 | inactive: 9.01% | 
CCC(Sc1nc2ccccc2c2nc(CCn3c(C)nc4ccccc43)nn12)C(=O)Nc1ccc(F)cc1 (stereo not given) | inactive: 2.19% | 
CCOc1ccccc1NC(=O)CC(c1ccc(F)cc1)N1Cc2ccccc2C1=O (stereo not given) | inactive: -2.01% | 

SMILES | activity change, negative = inhibition | Potency
Cc1ccc(-c2cc(C(=O)OCC(=O)c3ccccc3)c3cccc(Cl)c3n2)cc1 | inactive: -23.8% | 
COc1ccccc1N1CCN(C(=O)C2CCN(S(=O)(=O)Cc3ccccc3)CC2)CC1 | inactive: -2.42% | 
CCC(Cc1ccccc1)NC(=O)CN1C(=O)COc2ccc(S(=O)(=O)N3CCCCCC3)cc21 (stereo not given) | inactive: -11% | 
Cc1cc2c(cc1NC(=O)c1ccccc1C)n(C)c(=O)c(=O)n2C | inactive: 1.75% | 
COc1ccc(CCNC(=O)CCCn2c(=O)c3cccn3c3ccccc32)cc1OC | inactive: 4.6% | 
CCOCCCNC(=O)C1CCN(C(=O)c2cc3sccc3n2C)CC1 | inactive: 0.558% | 
COc1ccc(NC(=O)CCCN2C(=O)C(c3ccccc3)Oc3cccnc32)c(OC)c1 (stereo not given) | inactive: -2.4% | 
CCc1ccc(CNC(=O)CCCN2C(=O)CCn3nc(-c4cccn4C)cc32)cc1 | inactive: 5.6% | 
CCc1ccc2oc(C(=O)Nc3cccc(Cl)c3C)cc(=O)c2c1 | inactive: -2.64% | 
CC(C)CCN(Cc1ccco1)C(=O)c1cc2c(s1)-c1ccccc1OC2 | inactive: -4.24% | 
COc1cc(-c2nnc(SCCOc3ccc(Cl)cc3)o2)cc(OC)c1OC | inactive: -16.6% | 
O=C(COc1ccccc1)OCc1cc(=O)n2nc(C3CC3)sc2n1 | inactive: -5.74% | 
Cc1ccc(C(=O)c2c(N)c(-c3nc(-c4ccc5c(c4)OCO5)cs3)c3ccccn23)cc1C | inactive: 0.267% | 
Cc1cccc(N2CCN(C(=O)Cc3c(C(=O)O)c(C)cn3C)CC2)c1C | inactive: 2.12% | 
Cc1ccc(C(=O)Nc2cc(-c3nc4ncccc4o3)ccc2C)c(C)c1 | inactive: 0.45% | 
COCc1nn2cc(-c3ccc(C)cc3)nc2s1 | inactive: -11.4% | 
CC(=O)N1CCc2c(sc3c2c(=O)n(Cc2ccccc2)c(=O)n3Cc2ccc(C)cc2)C1 | inactive: 0.278% | 
COC(=O)c1ccc(Cn2cnc3nc4c(cc3c2=O)CCCC4)cc1 | inactive: 2.39% | 
CC(=O)c1ccc(N2CCN(C(=O)C3CCN(S(=O)(=O)c4c(C)noc4/C=C/c4ccc(C)cc4)CC3)CC2)cc1 | inactive: 0.037% | 
CCOc1ccccc1CNC(=O)C1CCN(S(=O)(=O)c2ccc3[nH]c(=O)ccc3c2)CC1 | inactive: 0.275% | 
